According to the RNAGym collection of RNA variant scans (doi:10.1101/gad.245936.114):
Variants at the floor of the assay are shown more often than the library holds them.

B1: tRNA (parent)
chain: CUCUCGGUAGCCAAGUUGGUUUAAGGCGCAAGACUUUAAUUUAUCACUACGAAAUCUUGAGAUCGGGCGUUCGACUCGCCCCCGGGAGAUUUUUUCCUCGAGCAA

Variants of: B1
Test: nonsense suppression (GFP-seq) (ratio to wild type); higher = more function; SUP4oc tRNA, yeast GFP reporter sort-seq
Outline: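 To measure nonsense suppression, tRNA variants from a library carrying ~3% random mutations were integrated into the yeast genome alongside RFP and a GFP ochre reporter under galactose control. Growth took place in raffinose/galactose medium supplemented with 80 mg/L adenine, followed by sorting into GFP/RFP bins and Illumina sequencing of each bin (phred ≥30). For each variant with ≥100 reads and ≥30 cells, the bin median GFP/RFP values were weighted by its estimated cell share per bin and referenced to the unmutated parent tRNA.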

Variant | nonsense suppression
A13C C27A G84A G88U | ≤ 0.026
C12U G18C C56A | ≤ 0.026
A13C G19U U21C U63A U70G | ≤ 0.026
C12A G15U A24U A62U | ≤ 0.026
C12U A62U C79A | ≤ 0.026
A13C U22G A74U | ≤ 0.026
A13C A54U U57C G69C | ≤ 0.026
C12G A13C U22C U63G G86U | ≤ 0.026
C12A U17A | ≤ 0.026
C12U G59C | ≤ 0.026
C12A G59U | ≤ 0.026
C12A G59A | ≤ 0.026
C12A C27U C56A G86A | ≤ 0.026
C12G C29U U35A C56A | ≤ 0.026
C12U A13C A33G | ≤ 0.026
C12G U63G | ≤ 0.026
C12G U63A | ≤ 0.026
C12U U57G G86C | ≤ 0.026
C12A C83G G85A | ≤ 0.026
C12A A24G C34G U63A C81A | ≤ 0.026
C12G G15C G67U | ≤ 0.026
C12U A60U C72G U76G G84U | ≤ 0.026
A13C G66U | ≤ 0.026
C12G U71G | 0.859

Variant | nonsense suppression
C12G A33U G59C C68G | ≤ 0.026
C12U U21A U57G C77G | ≤ 0.026
C12G A31G A62U C77A G78A A89U | ≤ 0.026
C12G G59C | ≤ 0.026
C12G A33G U76G | ≤ 0.026
C12U G25C A87C | ≤ 0.026
A13C U17G C29U A30C U76A | ≤ 0.026
C12A G25A G26A | ≤ 0.026
A13C G15C C29A U57A | ≤ 0.026
C12G U55A U71C C81A G85U G88C | ≤ 0.026
C12A U16G A60G C83G G85A | ≤ 0.026
C11U U71C | ≤ 0.026
C12U U55C C82A | ≤ 0.026
C12U G28A | 0.51
C11U U20G A33C C34G C56U U58G | ≤ 0.026
C12U C75G | 1.23
C12G U16A | ≤ 0.026
C12G C27A A89G | ≤ 0.026
C12A C80G G88A | ≤ 0.026
A13C A33U U63C | ≤ 0.026
A13C C56G | ≤ 0.026
C12U A23C G78C | ≤ 0.026
C12G G61C | ≤ 0.026
C12G A24G U35G G61A U71A G86A | ≤ 0.026

Variant | nonsense suppression
C12G U55C G73U | ≤ 0.026
C11U U57G G59A | ≤ 0.026
C12U A89C | ≤ 0.026
C12U A89G | ≤ 0.026
C12U G26U G84A | ≤ 0.026
A13C G67A | 0.0799
C12A C34G G84A | ≤ 0.026
C12G U16A G25U A62C U71A C79G | ≤ 0.026
C12U U20G U70C A74C | ≤ 0.026
C12A A13C C80G | ≤ 0.026
C12G G69U C77G | ≤ 0.026
A13C G88U | ≤ 0.026
C12A A30C | ≤ 0.026
A13C G19U U58A C77U | ≤ 0.026
C12U A24G U58C G59C G73C G85C | ≤ 0.026
C12U C64G G78C | ≤ 0.026
C12U G25C | 0.184
C12U G25U | 0.192
C12A A74U | ≤ 0.026
C11U U20G A33C C34G C56U U58G C82G | ≤ 0.026
C12A G32C U57G | ≤ 0.026
C12U U57C | ≤ 0.026
C12U A23G G85U | ≤ 0.026
C12U C34G | ≤ 0.026

Variant | nonsense suppression
C12U C34U | ≤ 0.026
C12U U35C G61C | ≤ 0.026
C12G C27G U63C | ≤ 0.026
C12A U55C C81A | ≤ 0.026
C12A C27A | ≤ 0.026
A13C C34G C83A | ≤ 0.026
C12A U17A C29A G59A | ≤ 0.026
C12G U17A A62G | ≤ 0.026
A13C A31U G59U | ≤ 0.026
C12A A13C | ≤ 0.026
C12U A62U U70G | ≤ 0.026
C12G A14C G61C A62C G73U | ≤ 0.026
A13C G26C U55C | ≤ 0.026
C12U G65C | ≤ 0.026
C12G G18C | ≤ 0.026
A13C C29U | 0.806
C12G U35A U58A U63A G78A | ≤ 0.026
C12G A31C G59U | ≤ 0.026
C12U C64G | ≤ 0.026
A13C A87C | 0.0539
C12G G26C G59A C83A | ≤ 0.026
C11U U35G U55G U76A C82G | ≤ 0.026
A13C A89C | ≤ 0.026
C12U A13G U21A | 0.0262

Variant | nonsense suppression
A13C U21C | 1.17
C12U U20A C83G | ≤ 0.026
C12U U16C | 0.853
C12A A13U A30C U63G | ≤ 0.026
C12A G25C U57C U63C | ≤ 0.026
C12U A54U | 0.229
C12U A54C | 0.0512
C12U A54G | 0.0372
C12G G32U U57C | ≤ 0.026
C12A A13G C68G | ≤ 0.026
C12A A30C U70A | ≤ 0.026
C11U U63C U76C C80G C82G | ≤ 0.026
A13C A62C C81A | ≤ 0.026
C12A G25U G88A | ≤ 0.026
C12G A14U G86C | ≤ 0.026
C12U A23G G32C | ≤ 0.026
C11U U76C G86A | ≤ 0.026
C12U U57A A62U | ≤ 0.026
C12G A14U A30G A31G A60G G78C | ≤ 0.026
C12A G19U G26C C56G G61U | ≤ 0.026
C12U U21C A30C A33U | ≤ 0.026
C11U U20A C82G | ≤ 0.026
C12U A13U C79U | 0.0331
C12U U16C G19C | ≤ 0.026

Variant | nonsense suppression
C12U G66C | ≤ 0.026
C12A U20G A31G U55C | ≤ 0.026
C12G U55C U57G | ≤ 0.026
C12A U22C C81A | ≤ 0.026
C12A A60G G61A G86C | ≤ 0.026
C12U G18U U20G | ≤ 0.026
C12U C64U C80A | ≤ 0.026
C12A G26A | ≤ 0.026
C12A U22C | ≤ 0.026
C12A U57C | ≤ 0.026
C12U A13G A30C | ≤ 0.026
C12U G32C G78C | ≤ 0.026
C12G U76C | ≤ 0.026
A13C G18C G26A C27G A33C | ≤ 0.026
C12G U21C U63A A87U | ≤ 0.026
C12U U22G G26U | ≤ 0.026
C12U G32U C56G U58C G85C | ≤ 0.026
C12U A13G A24U | ≤ 0.026
A13C A30U G85A | 0.157
C12A A62U | ≤ 0.026
C12A A62C | ≤ 0.026
A13C U20G G59A G78A | ≤ 0.026
C12G U55C G85U | ≤ 0.026
C12G A14C U57G C75G G78A | ≤ 0.026

Variant | nonsense suppression
C12A C56A U76C | ≤ 0.026
C12A C68U U70A G84A | ≤ 0.026
C12U U76G | 0.0906
C12U C27U G88U | ≤ 0.026
C12G U16A U70A | ≤ 0.026
A13C U55A U57C C68U | ≤ 0.026
C12U C29G | ≤ 0.026
C12U C29U | 0.206
C12G G28U C72G | ≤ 0.026
C12G C81U | ≤ 0.026
A13C G61C G88A | ≤ 0.026
C12G U70G | ≤ 0.026
C11U U21A G65U | ≤ 0.026
A13C G66C A74G | ≤ 0.026
C12G A13C | ≤ 0.026
C12U G19U U57C C72G G78U | ≤ 0.026
C12U A23G G73A U76G C81U C83A G88U | ≤ 0.026
C12U A23G C29A | ≤ 0.026
C12U G67C | ≤ 0.026
C12A U20A A24C G32U C77A | ≤ 0.026
A13C G28U G32U | ≤ 0.026
C12A U35C C72G G85A | ≤ 0.026
C12U C75U A87C | ≤ 0.026
